Assay results published in the supplement of paper PMC3334620.
In all, about 33,000 sequences were measured (“E-score (-0.5 to 0.5)”: median about -0.013, highest 2% from about 0.3 on). The list shows a part of the results.

target: T1, Msn1 (UniProt P22148); assay: PBM E-score (8-mer binding enrichment) (E-score (-0.5 to 0.5)); higher = stronger / more preferred TF binding; most listed sequences are background and not binding sites; conditions: protein concentration: 200 nM; construct: GST-full length
T1 sequence: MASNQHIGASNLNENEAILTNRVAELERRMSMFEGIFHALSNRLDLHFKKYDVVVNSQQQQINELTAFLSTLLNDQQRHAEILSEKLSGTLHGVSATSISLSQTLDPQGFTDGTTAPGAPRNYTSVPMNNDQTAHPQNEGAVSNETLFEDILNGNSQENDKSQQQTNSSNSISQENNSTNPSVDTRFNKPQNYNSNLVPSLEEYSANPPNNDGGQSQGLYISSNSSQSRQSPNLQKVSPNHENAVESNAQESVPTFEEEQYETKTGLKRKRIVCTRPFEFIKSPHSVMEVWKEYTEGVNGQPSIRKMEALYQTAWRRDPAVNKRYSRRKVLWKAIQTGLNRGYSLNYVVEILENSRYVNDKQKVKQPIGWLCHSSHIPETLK
In short: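 GST-tagged yeast TFs (full-length or DNA-binding domain) were made by PURExpress in vitro transcription/translation and applied at about 100-200 nM to universal all-10-mer Agilent arrays. The arrays were made double-stranded by primer extension, on fresh or once-stripped slides. Bound protein was detected with fluorescent anti-GST, and scans were normalised with masliner. Each ungapped eight-base word, pooled with its reverse complement, received an E-score (modified Wilcoxon-Mann-Whitney statistic) from the Universal PBM Analysis Suite.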

Sequence	PBM E-score
TCAATGAA	0.0871
ACTTGGAC	0.291
GGGGGGAC	-0.218
CCGCTGAG	0.00458
ACCTGCCG	-0.116
ACCTTCTC	-0.183
CAGTGATG	0.0171
AAAAAATC	0.105
GTCAGGCA	-0.0756
CGGATACG	0.0284
ATCTACGG	-0.103
ACAAAGAG	-0.00747
CAGTCGGC	-0.0676
GTACTTGA	0.186
CCTCGTAG	-0.154
CGCGGCAA	-0.0728
ATTTCATA	0.103
ACTACATG	0.142
CGTTGCTA	-0.0977
AGTTCGTG	0.0266
AGCTATCG	-0.0821
CTTAACGA	0.159
CGTGTTGA	0.022
CCAGCCAA	-0.027
AGCTCACT	-0.217

Sequence	PBM E-score
ACTACTAC	0.0357
ATCGTCTC	0.0417
TGCATGCA	0.0527
AGCTCGTA	-0.00733
CGGGTGTA	-0.0647
TACAGCGA	-0.0582
GCTTTCCC	0.00071
CTTGTACC	0.286
AAGGTTAC	-0.0549
AAATGGCT	0.0617
ATTCAATG	0.142
GCCCGGCA	-0.169
ATGACGCA	0.224
CTCAACGA	-0.0825
ATGGGAGG	-0.115
CAGAGTCC	0.0634
GAATCCTC	-0.289
CCCAGCTC	-0.155
CGTGGCAC	0.0166
ACGTACAA	0.234
CTTTAGGC	-0.131
CCCTAGCC	-0.261
AAGGTCGG	-0.139
CCCACTAA	-0.085
ACACATCT	-0.0161

Sequence	PBM E-score
AATAAGTG	0.117
AGCTTCTA	-0.0188
GGGCTGAC	-0.143
AAGTAGAG	0.0056
ACGGGTAC	-0.067
CTATTACC	-0.165
CCAGTGGC	-0.143
TAAAATGA	0.254
CGTTCGAC	-0.127
ACCGACTC	-0.0668
AGAAATGA	0.232
TACCAGAA	0.0567
ATGACCCC	-0.211
CAAGTTTC	0.0198
ACCATGCT	-0.124
CTAGCTGC	-0.171
GGCTGCTA	-0.246
GACCAATA	0.0382
AGTGCCAT	-0.259
CCGCCCTC	-0.231
GCACTAGC	-0.0522
CCGTCGGA	0.0394
AGAGCAGC	-0.112
CAACTCGG	-0.00815
TCCATTCA	0.203

Sequence	PBM E-score
GACTGACC	-0.204
ACCCACAA	0.126
AGCGGTCG	-0.294
ACCTCCCA	-0.259
AAACTTGC	-0.0981
ATGTTCTA	-0.00786
ATACGTCA	0.036
CACGTACC	-0.13
ACCAGCCA	-0.14
ATCGGCCA	-0.117
GACGACGC	-0.0748
CGTGTCAC	0.287
CCTTATTA	0.091
AAGGCATT	-0.229
ACCCACTC	-0.261
CCCCAGAG	-0.243
AATTGACT	0.151
CAGGACTC	-0.0371
AAAGGTGT	-0.0579
GCCGAAGC	-0.0452
AGGTGCCG	0.0728
CAGTAAGC	-0.147
CGCTAAAC	-0.00264
ATGCCCAG	-0.142
CCGTAGAG	-0.0502

Sequence	PBM E-score
GATAATAA	0.0741
CGGAAGTA	0.00789
CGGGCATC	-0.274
GATATTGC	0.0823
CCCCACCG	-0.242
AGCCCCAG	-0.239
AATGAGCA	0.0647
GAAAACCC	-0.0382
CGTTCTTC	0.0728
GCGAAGAC	-0.0575
GTTCACCA	-0.0926
AATTCATC	-0.22
ACAGGTTA	0.0301
CCCAACCA	0.0322
ACGGGAGA	-0.106
ATTCAAAC	0.125
AGTAGTCG	0.0474
TGCGTAAA	-0.0602
ATGTCCAA	0.485
TATGCTCA	0.0929
GCTGTGAA	-0.0215
CCTTGCAA	-0.109
AGTCCGAA	0.108
ATAGTTGG	-0.0884
AATAAGAG	0.0171

Sequence	PBM E-score
CCCAAGGG	-0.22
ACCGGGAC	0.126
GTGACGAA	-0.0509
AGGAGTAC	-0.197
CACCATTC	-0.122
ACCAATGA	-0.0181
AATTTTAT	0.225
ATTCGTTG	0.116
GATGTAAC	-0.0718
GATGGGAC	0.14
ATGGTCTG	-0.0695
CATTCGAA	0.0621
GCTTAATA	-0.0678
ATGCCGTC	-0.105
AAACGGGC	0.082
TCACTCAA	-0.148
ATATTTCG	0.221
AAGTATGC	-0.0157
GCTTACCC	-0.191
AGCTAAGC	-0.277
CAACTCCG	-0.0564
ATCCGCAA	-0.00729
AACGTAGA	-0.0161
CTCTTGCC	-0.0644
AACACTCC	-0.0357

Sequence	PBM E-score
AAAGCTCC	-0.127
CTCCGACC	-0.0669
AACGGGTG	0.0124
CCCCGGCG	-0.35
ACCCGCTG	-0.0703
CTTATAAG	0.102
GAATGAAA	0.124
ACTAGATG	0.00237
CGGTGTCA	0.0418
CTTTTCGC	0.0851
TCAAAACA	0.177
TCCGACAA	0.372
CCTGCCAC	-0.298
TATAAGAA	0.027
CGGGTGAG	-0.247
ATGCTCTA	-0.131
AATTTGTC	0.488
ATTGTGCA	0.0409
CTCTCAAG	-0.0939
GAAGTCAC	-0.0737
AGCTCTTC	-0.0398
ATCGACTG	-0.115
